# From the supplement of paper PMC4166925
# ± gives the standard deviation of the averaged measurements. Over roughly 33,000 sequences, “E-score (dimensionless, -0.5 to 0.5)” has its median near -0.049; the highest 2% begin near 0.37. Some of the results follow.
# System: T1, PmTbr T-box DNA-binding domain (GST fusion)
# T1 sequence: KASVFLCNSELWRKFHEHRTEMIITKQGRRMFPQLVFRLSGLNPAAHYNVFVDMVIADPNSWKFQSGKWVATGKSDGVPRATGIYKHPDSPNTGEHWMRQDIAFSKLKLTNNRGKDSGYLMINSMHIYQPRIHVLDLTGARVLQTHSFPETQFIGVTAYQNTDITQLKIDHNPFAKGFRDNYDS
# Test: PBM E-score of 8-mer (E-score (dimensionless, -0.5 to 0.5)); Tbr is Tbrain of the sea star Patiria miniata (Pm) or the sea urchin Strongylocentrotus purpuratus (Sp); higher = stronger binding preference; most listed sequences are background and not binding sites
# Details: the construct has about 5 more residues each side
# Method in brief: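 Universal Agilent oligonucleotide arrays, made double-stranded by primer extension, were incubated with 200 nM GST-fused Tbr T-box DNA-binding domain in PBS (pH 7.5). The protein was expressed in BL21 E. coli at 20 °C and purified by glutathione affinity chromatography. After scanning and quantification, the Universal PBM Analysis Suite assigned an enrichment E-score to each ungapped 8-mer, averaged over duplicate arrays.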
row,Sequence,PBM E-score of 8-mer
1,GCACAGTA,-0.0282 ± 0.022
2,CGACTTTC,0.1558 ± 0.00021
3,CATGGGAC,-0.232 ± 0.096
4,AACGGTCA,0.0487 ± 0.039
5,GCAGGGCC,-0.204 ± 0.064
6,GATGGCAA,0.0754 ± 0.075
7,GGACGGAC,-0.168 ± 0.013
8,AGTCCTTG,-0.111 ± 0.013
9,CGCCGCTA,0.0655 ± 0.029
10,AGTGCCCA,-0.131 ± 0.0019
11,TAAAGCTA,-0.112 ± 0.15
12,GCAAGAAA,-0.0627 ± 0.15
13,ATCGTATC,-0.00948 ± 0.015
14,CGCAAGAA,0.0887 ± 0.099
15,CCGAGACG,-0.201 ± 0.084
16,AACTGCCG,0.0601 ± 0.068
17,AATACCGG,-0.294 ± 0.068
18,ATCGTCAG,-0.05 ± 0.032
19,ATCACTGA,0.0524 ± 0.089
20,CTACTGCA,-0.111 ± 0.053
21,CGCCTGTC,0.303 ± 0.026
22,CAGTCAGG,-0.27 ± 0.0037
23,GAAATATA,0.121 ± 0.078
24,CAAGAGAG,-0.303 ± 0.023
25,TAGATACA,-0.182 ± 0.028

row,Sequence,PBM E-score of 8-mer
1,AAGGCGTC,0.354 ± 0.021
2,GTCGAGGA,-0.0465 ± 0.047
3,ACCATGCC,-0.147 ± 0.06
4,AACCACAG,-0.0542 ± 0.027
5,CAGGCCGG,-0.115 ± 0.0091
6,GCCGTACC,-0.195 ± 0.026
7,ACGAAATA,0.0613 ± 0.011
8,CAGTCCGA,-0.0658 ± 0.039
9,CCTGCCCA,-0.029 ± 0.021
10,CCGTGGAG,0.0713 ± 0.0076
11,CATGCGAA,0.108 ± 0.046
12,CTGTAAAG,0.101 ± 0.024
13,CCCTCATC,-0.186 ± 0.031
14,CCTCGCAG,0.0735 ± 0.061
15,ACGCCAAT,0.125 ± 0.037
16,ATTGTGAG,0.2213 ± 0.00029
17,AATAGACG,-0.214 ± 0.072
18,CCGCGGGC,-0.0683 ± 0.044
19,CTAAATGA,-0.136 ± 0.07
20,AAGCCCTC,-0.289 ± 0.054
21,TCATAAAA,-0.209 ± 0.017
22,AAAGTGGT,0.106 ± 0.042
23,ACACATAC,0.297 ± 0.021
24,ATCAAGCC,-0.0171 ± 0.049
25,CAAAACGG,-0.0396 ± 0.096

row,Sequence,PBM E-score of 8-mer
1,GCTCTTCC,-0.158 ± 0.058
2,AAACCGAC,0.0116 ± 0.036
3,ATCTCTGA,-0.257 ± 0.065
4,CCTAACCG,-0.189 ± 0.08
5,ATTCATCG,0.0107 ± 0.0037
6,CGTGCCGC,0.0781 ± 0.005
7,ACACTGAG,0.134 ± 0.0067
8,ACTTGAAG,-0.0242 ± 0.046
9,CAGAAACA,-0.111 ± 0.013
10,GCAAACTA,-0.0543 ± 0.058
11,AATCCGAT,-0.162 ± 0.013
12,CCAGTGTC,0.0539 ± 0.05
13,GGACTGAA,-0.201 ± 0.039
14,AGCGGTTC,-0.111 ± 0.028
15,ACACCTAA,0.463 ± 0.0018
16,ACGGAATG,-0.0642 ± 0.043
17,ACAGATGA,0.00068 ± 0.05
18,AACACCCT,0.433 ± 0.017
19,AAACCAGA,-0.142 ± 0.037
20,ACGGGGAA,-0.205 ± 0.016
21,AGCGATGC,-0.132 ± 0.058
22,ATTGGTAA,-0.202 ± 0.11
23,GCGTGGCC,0.0139 ± 0.02
24,AGAATCAT,-0.0651 ± 0.0097
25,CGGCCTTA,-0.218 ± 0.029

row,Sequence,PBM E-score of 8-mer
1,ACAAGTGC,0.249 ± 0.005
2,CTCGAGCA,-0.0864 ± 0.015
3,CTTCATCC,-0.303 ± 0.023
4,TTAATCAA,-0.0923 ± 0.11
5,CCGAGACC,-0.383 ± 0.037
6,GTACTATA,-0.135 ± 0.042
7,CAGGAAAC,-0.143 ± 0.015
8,AACTTACG,-0.133 ± 0.018
9,AAGTTGAC,0.188 ± 0.033
10,CATCACCC,0.25 ± 0.032
11,GGAGCAAC,0.0475 ± 0.0065
12,ACAGCGCT,-0.0241 ± 0.069
13,GTGAAAAC,0.3199 ± 0.0029
14,AGCGAAGC,-0.0446 ± 0.025
15,CAAAAGCA,-0.0628 ± 0.021
16,GGGAAACC,-0.213 ± 0.011
17,AAATCCGG,-0.0666 ± 0.064
18,GAACCGAA,-0.0968 ± 0.047
19,CGGGGCTC,0.022 ± 0.083
20,AGGTAAAT,-0.129 ± 0.065
21,GGTGATAA,0.413 ± 0.018
22,CGAGGGGA,-0.0811 ± 0.072
23,CGTTAATC,0.111 ± 0.01
24,CTAAACAA,0.063 ± 0.034
25,ATCCCCCG,-0.0123 ± 0.018

row,Sequence,PBM E-score of 8-mer
1,ACCAACCT,-0.0146 ± 0.0078
2,GCTATTAC,0.0909 ± 0.029
3,GGATGCCA,-0.0435 ± 0.011
4,GGTCAGTA,-0.273 ± 0.033
5,GGGAATAC,-0.1698 ± 0.0012
6,ACAGTCTA,-0.0652 ± 0.07
7,CCACTTGA,0.0559 ± 0.023
8,TAGCACTA,0.281 ± 0.024
9,CACAGGAG,-0.0709 ± 0.032
10,CTCGAACC,-0.074 ± 8.5e-05
11,CTGTGTGC,-0.0563 ± 0.038
12,CGCTACGA,-0.0671 ± 0.062
13,CGTGCCCC,-0.288 ± 0.068
14,TAACAGTA,0.0841 ± 0.033
15,ACGTTACT,-0.188 ± 0.033
16,CATTGTCG,0.0181 ± 0.025
17,AACACAAA,0.0781 ± 0.067
18,TCAAAGCA,-0.062 ± 0.0063
19,ACAGTCAA,0.0473 ± 0.017
20,GCGAGCTA,0.2056 ± 0.00028
21,AGAGTAAA,-0.0713 ± 0.046
22,GGACGCAA,-0.0512 ± 0.01
23,ATAGTAAC,-0.0833 ± 0.0067
24,ATGCGTCC,-0.188 ± 0.0056
25,CAGGCTAG,-0.0374 ± 0.092

row,Sequence,PBM E-score of 8-mer
1,ACGCACGA,-0.0602 ± 0.019
2,ATAGTTCG,-0.00624 ± 0.14
3,CTGTGAAA,0.384 ± 0.0085
4,AAATTCCT,-0.0902 ± 0.013
5,CGTGTCAG,0.31284 ± 0.00018
6,CCTCCAGC,-0.0157 ± 0.038
7,ATATACAT,-0.111 ± 0.0041
8,GAAACTAC,-0.157 ± 0.055
9,CATTGTAG,-0.0454 ± 0.041
10,CTTGTTCC,-0.103 ± 0.042
11,AGGTATTG,-0.0774 ± 0.054
12,ACGACCTC,0.0077 ± 0.061
13,GAACACTA,0.051 ± 0.077
14,ATTGTTTA,0.0887 ± 0.046
15,GCACAGAA,-0.179 ± 0.025
16,CCGGAGTA,-0.0523 ± 0.062
17,CATACCAA,-0.0572 ± 0.018
18,CTGCGTTC,-0.259 ± 0.045
19,AGACGATC,-0.107 ± 0.025
20,ACTGGGAC,-0.316 ± 0.0079
21,AACAACGT,0.0269 ± 0.019
22,GCACAGCA,0.0287 ± 0.064
23,CCCGCGGG,0.0199 ± 0.016
24,ATCGTCTG,-0.0783 ± 0.026
25,GGACCGTA,-0.293 ± 0.028

row,Sequence,PBM E-score of 8-mer
1,ACGTGCCA,0.367 ± 0.031
2,GGCGGCCA,-0.2 ± 0.024
3,TATACTAA,-0.17 ± 0.047
4,ATATTCGG,-0.15 ± 0.065
5,ATTTACGC,0.0788 ± 0.038
6,GCTTGCTA,0.0086 ± 0.1
7,AGTTGAGA,0.182 ± 0.028
8,AAGTTTCA,-0.124 ± 0.084
9,CGCACACA,0.121 ± 0.087
10,GGCGCCAA,0.362 ± 0.0038
11,CGTCAGTC,-0.00995 ± 0.022
12,ACCGAGTC,-0.0836 ± 0.1
13,ACCGACAG,0.0973 ± 0.063
14,ACTATATA,-0.0219 ± 0.14
15,CCCGACCC,-0.239 ± 0.05
16,CTGATAAA,-0.0061 ± 0.12
17,GATAGCCA,-0.257 ± 0.028
18,AGGCCCAG,-0.251 ± 0.062
19,CATGCTAC,0.0237 ± 0.00067
20,CCGTGCTC,-0.302 ± 0.016
21,CCTCGTCC,-0.151 ± 0.043
22,GGTATGAC,-0.0587 ± 0.0068
23,ATATGTTC,-0.0191 ± 0.015
24,CCTCTGAA,-0.24 ± 0.019
25,ATAATCAC,0.149 ± 0.047

row,Sequence,PBM E-score of 8-mer
1,TTACAAAA,-0.272 ± 0.052
2,GGCCCAGA,-0.255 ± 0.075
3,AAGCCGAT,-0.175 ± 0.032
4,CCCCGGGA,0.0135 ± 0.032
5,AGAAGATC,-0.0909 ± 0.029
6,CCTGCGGC,-0.15 ± 0.04
7,AAACCACC,-0.11 ± 0.019
8,ACTACCCA,-0.0473 ± 0.032
9,AGCAACAT,-0.000465 ± 0.079
10,CCGAGCTC,-0.305 ± 0.026
11,CCAGTGCA,-0.177 ± 0.014
12,AGGTCATA,-0.109 ± 0.053
13,ACATAAAT,0.0319 ± 0.031
14,GGACTAAC,-0.132 ± 0.015
15,CAGTCGAG,-0.139 ± 0.078
16,AAAGAATG,-0.116 ± 0.09
17,GACCTGGA,-0.138 ± 0.025
18,AACCTCCT,-0.0405 ± 0.019
19,AGCCTAAC,0.000845 ± 0.017
20,GCCCCACC,0.0195 ± 0.016
21,AGTGGCCC,-0.174 ± 0.04
22,CAATCCGA,-0.15 ± 0.004
23,ACCAAAAC,-0.0763 ± 0.047
24,TAACACTA,0.382 ± 0.0057
25,ACCGGGAG,0.113 ± 0.065

row,Sequence,PBM E-score of 8-mer
1,ATGTCTCC,-0.212 ± 0.08
2,AGGACCGG,-0.31 ± 0.028
3,GGACCGGA,-0.0947 ± 0.0016
4,CGTGAAGA,0.226 ± 0.03
5,CTGGACGC,-0.114 ± 0.031
6,GAATATCA,0.085 ± 0.034
7,CCTTCTTA,0.0146 ± 0.068
8,GGCAGCCA,0.0449 ± 0.017
9,CACAACCG,0.07226 ± 0.00021
10,ATAAGATC,-0.269 ± 0.034
11,CAGATCCC,-0.0979 ± 0.11
12,ATGTGGAC,-0.118 ± 0.066
13,CTACTTGA,0.00296 ± 0.036
14,ATGGACGA,-0.13 ± 0.085
15,GCTCTAGA,-0.268 ± 0.07
16,TCGACCAA,-0.0504 ± 0.03
17,GTGGCGTA,0.137 ± 0.033
18,TATTCCAA,-0.171 ± 0.051
19,CTGTTACC,0.142 ± 0.028
